Hit rate of the full screen: of about 52,000 compounds, about 4,300 (8.3%) were called active. No stated cut-off is given here; in the data, active means survival mostly below about 52% (no sharp cut-off); inactive means mostly above about 56%. The list shows a part of the results.
Each compound was assayed on DeltatarO mutant (assay: S. aureus survival, RN4220 and DeltatarO strains – OD600, teichoic acid synthesis inhibitors, primary screen (AID 463173)). Details: S. aureus RN4220 wild type/DeltatarO growth, OD600, 18 h, stronger effect = lower value; concentration not given here unless noted.

Structure (SMILES)	survival
CCC1(CCc2ccncc2)C(=O)NC(=O)NC1=O	inactive: 75%
CC(c1ccccc1)N1CCNCC1 (stereo not given)	inactive: 95%
CCC(C(=O)Nc1ccccc1F)N1C(=O)CN=C(c2ccccc2)c2ccccc21 (stereo not given)	inactive: 84%
CCc1ccc(-n2nc(C)c3c2NC(=O)CSC3c2ccc(OC)cc2OC)cc1 (stereo not given)	inactive: 60%
CCOC(=O)c1ccc(NC(=O)c2cccn(Cc3ccccc3F)c2=O)cc1	inactive: 86%
N#Cc1ccccc1NC(=O)c1cccn(Cc2ccccc2)c1=O	inactive: 94%
CCN=Cc1c(O)n(C)c(=O)n(C)c1=O	inactive: 91%
COc1ccc(-c2nc(CN3C(=O)CN=C(c4ccccc4Cl)c4cc(Cl)ccc43)c(C)o2)cc1OC	inactive: 63%
Cc1cccc(CN2C(=O)CN=C(c3ccccc3)c3cc(Cl)ccc32)c1	inactive: 92%
CCCc1ccc(OCC(=O)Nc2ccc(Cl)cc2C(=O)c2ccccc2)cc1	inactive: 67%
CC(C)c1ccc(NC(=O)CN2C(=O)CN=C(c3ccccc3)c3ccccc32)cc1	inactive: 93%
COc1ccc(OCC(=O)N2CCN(CCc3ccccn3)CC2)cc1	inactive: 55%
O=C(NC1CC2CCC(C1)N2)c1ccccc1 (stereo not given)	inactive: 90%
N#CC(C#N)=Cc1ccc(N2CCCCC2)cc1	inactive: 84%
COc1ccc(C)cc1NC(=O)c1cccn(Cc2ccccc2Cl)c1=O	inactive: 93%
O=C(COc1ccccc1[N+](=O)[O-])N1CCN(CCc2ccncc2)CC1	inactive: 90%
Cc1cccc(C)c1OCC(=O)Nc1ccc(Cl)cc1C(=O)c1ccccc1	active: 17%
COc1ccc(CN2CCNCC2)cc1	inactive: 67%
C1CCN2C(C1)N1CCCCC1N1CCCCC21 (stereo not given)	inactive: 100%
CN1C(=O)C(=Cc2ccco2)C(=O)N(C)C1=O	inactive: 78%
CCC(C)N1CCN(Cc2cc(OC)c(OC)cc2OC)CC1 (stereo not given)	inactive: 108%
Cc1ccc(-n2c(/C=C/c3ccccc3)nc3ccccc3c2=O)cc1Cl	inactive: 68%
CC(=O)OC1(c2ccccc2)CCN(C)C2CCCCC21 (stereo not given)	inactive: 91%
CN1/C(=C\C=C2C(=O)NC(=O)NC2=O)C(C)(C)c2ccccc21	inactive: 83%
CCCNCCc1ccccc1	inactive: 85%

Structure (SMILES)	survival
Cc1ccc(NC(=O)CN2C(=O)CN=C(c3ccccc3)c3ccccc32)c(C)c1	inactive: 90%
N=C1SCC(=O)N1Cc1ccccc1	inactive: 66%
CC(C)OC12Oc3ccccc3C=C1N1CCC2CC1 (stereo not given)	inactive: 80%
O=c1c2ccccc2nc(-c2ccco2)n1-c1nccs1	inactive: 84%
COc1cc(/C=C/c2nc3ccccc3c(=O)n2-c2ccc(Br)c(C)c2)ccc1O	inactive: 71%
N#Cc1cc([N+](=O)[O-])ccc1NC(=O)c1cccn(Cc2cccc(F)c2)c1=O	inactive: 102%
O=C(Nc1ccc2c(c1)OCCO2)c1cccn(Cc2cccc([N+](=O)[O-])c2)c1=O	inactive: 94%
CC12CCC3C(CCC4CC(N)CCC43C)C1CCC2O (stereo not given)	inactive: 113%
CSc1ccc(C(c2c(O)c3ccccc3oc2=O)c2c(C)n(C)n(-c3ccccc3)c2=O)cc1 (stereo not given)	inactive: 128%
CN1CCN(c2csc3ccc(F)cc3c2=O)CC1	inactive: 98%
CCOc1ccc(-n2c(/C=C/c3ccccc3)nc3ccccc3c2=O)cc1	inactive: 107%
N#Cc1cc2c(nc1SCC(=O)Nc1cccc(F)c1)C1CCN2CC1	active: -4%
CSc1nc2ccccc2c(=O)n1-c1ccccc1C	inactive: 95%
O=C(Nc1ccc2c(c1)OCO2)c1cccn(Cc2ccc(F)cc2)c1=O	inactive: 72%
Cc1ccccc1Cn1cccc(C(=O)Nc2cc(Cl)ccc2C#N)c1=O	inactive: 58%
O=c1cccc2n1CC1CC2CN(c2ncnc3c2cnn3-c2ccc(Cl)cc2)C1 (stereo not given)	inactive: 52%
Cn1c(=O)n(C)c2cc(CNCCc3ccccc3)ccc21	inactive: 77%
CCC(=O)N1CC(=O)Nc2ccc(C)cc2C1c1ccc(F)cc1 (stereo not given)	inactive: 64%
CCN1CCN(C(=O)COc2ccc(S(=O)(=O)N(C)Cc3ccccc3)cc2)CC1	inactive: 87%
CCOc1ccc2nc(NC(=O)c3cccn(Cc4ccccc4C)c3=O)sc2c1	inactive: 80%
CCOc1ccc(CC2(CCc3ccncc3)C(=O)NC(=O)NC2=O)cc1	inactive: 76%
OCCCNc1c2c(nc3ccccc13)CCCC2	inactive: 76%
N#CC(C#N)=Cc1ccc(-c2ccccc2)o1	inactive: 96%
Cn1cc(C=C(C#N)C#N)c2ccccc21	inactive: 92%
COC(=O)c1cn(Cc2ccccc2C#N)c2ccccc12	inactive: 82%

Structure (SMILES)	survival
Cc1cc(NC(=O)c2cccn(Cc3cccc([N+](=O)[O-])c3)c2=O)no1	inactive: 80%
O=C(Cc1ccccc1)Oc1cccc(-n2cnnn2)c1	inactive: 111%
Cc1cc(N2CCNCC2)nc2ccccc12	inactive: 86%
COc1ccc(-c2nc(CN3C(=O)CN=C(c4ccccc4)c4ccccc43)c(C)o2)cc1OC	inactive: 97%
CC1CC(=O)C2CCCCC2N1 (stereo not given)	inactive: 84%
CCc1ccc(OCC(=O)N2CCN(CCc3ccccn3)CC2)cc1	inactive: 63%
COc1ccc(CNCC(=O)N2CCC3(CC2)OCCO3)cc1	inactive: 93%
CN(C)C(=O)Oc1ccnc2cc(Cl)ccc12	inactive: 87%
O=C1CN=C(c2ccccc2)c2cc(Cl)ccc2N1Cc1ccc(Cl)cc1	inactive: 66%
CCC(C)c1c(O)[nH]c(=S)[nH]c1=O (stereo not given)	inactive: 82%
COc1ccc(-c2nn3c(=O)cc(CN4CCN(C(=O)COc5ccc(F)cc5)CC4)nc3s2)cc1	inactive: 71%
Cc1oc(-c2ccc(Cl)cc2)nc1CN1C(=O)CN=C(c2ccccc2)c2cc(Cl)ccc21	inactive: 90%
Cc1ccc(C)c(CN2C(=O)c3ccccc3Sc3ccc(C(=O)N4CCC5(CC4)OCCO5)cc32)c1	inactive: 55%
O=C(c1ccc2c(c1)N(Cc1c(F)cccc1Cl)C(=O)c1ccccc1S2)N1CCC2(CC1)OCCO2	inactive: 81%
O=C(Nc1ccc(OC(F)(F)F)cc1)c1cccn(Cc2ccccc2Cl)c1=O	inactive: 135%
Cc1cccc(CN2C(=O)CN=C(c3ccccc3Cl)c3cc(Cl)ccc32)c1	inactive: 101%
COc1ccc(N=C2SCCCN2C)cc1	inactive: 99%
Cc1ccc(-n2c(/C=C/c3ccccc3)nc3ccccc3c2=O)cc1C	inactive: 78%
COc1ccc(C=C(C#N)C#N)c2ccccc12	inactive: 67%
Cc1ccc2scc(N3CCN(C)CC3)c(=O)c2c1	inactive: 107%
C=CCn1c(C)c(C(=O)OCC)c2cc(O)ccc21	inactive: 90%
CC(=O)c1ccc(NC(=O)c2sc3nc4c(cc3c2N)N2CCC4CC2)cc1	inactive: 98%
O=c1c2ccccc2nc(CN2CCOCC2)n1-c1ccccc1F	inactive: 91%
CCOc1ccc(CN2C(=O)c3ccccc3Sc3ccc(C(=O)N4CCC5(CC4)OCCO5)cc32)cc1	inactive: 74%
Cc1c(C(c2ccc(O)cc2)c2c(O)c3ccccc3oc2=O)c(=O)n(-c2ccccc2)n1C (stereo not given)	active: 47%

Structure (SMILES)	survival
NC(=O)c1ccc(NC(=O)c2cccn(Cc3ccccc3)c2=O)cc1	inactive: 83%
Cc1ccc(-n2c(/C=C/c3cccc(C(F)(F)F)c3)nc3ccccc3c2=O)cc1	inactive: 72%
CCC(CC)NC1CCCCC1OC (stereo not given)	inactive: 89%
N#CC1=C(N)Oc2c(c(=O)oc3ccccc23)C1C1CC=CCC1 (stereo not given)	inactive: 68%
Cc1cccc(-n2c(/C=C/c3cccc4ccccc34)nc3ccccc3c2=O)c1	inactive: 94%
O=c1c2ccccc2nc(/C=C\c2cccc(Br)c2)n1-c1ccc(O)cc1	inactive: 100%
CCSc1nnc(NC(=O)c2cccn(Cc3ccc(Cl)cc3)c2=O)s1	inactive: 73%
N#Cc1cc2c(nc1SCC(=O)Nc1ccc(Cl)c(C(F)(F)F)c1)C1CCN2CC1	active: -1%
O=C1NC(=O)C(C(CC(=O)c2ccccc2)c2ccccc2)C(=O)N1 (stereo not given)	inactive: 81%
COc1ccc(NC(=O)c2cccn(Cc3ccc(Cl)cc3)c2=O)c(OC)c1	inactive: 80%
O=C(/C=C/c1ccco1)C1C(=O)c2ccccc2C1=O	inactive: 98%
O=C(COc1ccccc1)N1CCN(Cc2ccc(Br)cc2)CC1	inactive: 78%
CC1CN(C)C(C)(C)CC1(O)c1ccccc1 (stereo not given)	inactive: 95%
O=C(COc1ccccc1[N+](=O)[O-])N1CCN(CCc2ccccn2)CC1	inactive: 49%
Cc1ccccc1-n1c(/C=C/c2ccccc2F)nc2ccccc2c1=O	active: 5%
O=C(Nc1ccccc1C(F)(F)F)c1cccn(Cc2ccccc2)c1=O	inactive: 88%
Cc1ccc(-n2c(/C=C/c3cccc4ccccc34)nc3ccccc3c2=O)cc1	inactive: 77%
NC(=O)CN1C2CCC1CC(NC(=O)C1CC1)C2 (stereo not given)	inactive: 102%
COCCNC(=O)CN1C2CCC1CC(O)(c1cccnc1)C2 (stereo not given)	inactive: 69%
S=c1[nH]nc(CCN2CCN(c3ccc(Cl)cc3)CC2)n1-c1ccccc1	inactive: 68%
Cc1cccc(Cn2cccc(C(=O)Nc3nc4ccccc4s3)c2=O)c1	inactive: 122%
Cc1cccc(-n2c(CC3C(=O)Nc4ccc(C)cc43)nc3ccccc3c2=O)c1 (stereo not given)	active: 34%
COc1cccc(-n2c(/C=C/c3cccc(C)c3)nc3ccccc3c2=O)c1	active: 0%
COc1ccc(OC)c(CCNCc2c(C(=O)O)c(C)n(Cc3ccc(F)cc3Cl)c2C)c1	inactive: 67%
OC1(c2ccc(F)cc2)CC2CCC(C1)N2Cc1nnnn1C1CCCCC1 (stereo not given)	inactive: 97%

— PubChem BioAssay AID463173 (ICCB-Longwood Screening Facility, Harvard Medical School, 2010)
